Source: PubChem BioAssay AID2675 (National Center for Advancing Translational Sciences (NCATS), 2010)
Out of some 280,000 compounds screened, about 100 (0.036%) were called active. Inconclusive results, whose numbers are uncertain, are shown with a selection of clear calls. The call rests on the fitted dose curve; in most records, active means well fitted inhibition curve with a large enough effect in the signal ratio, with a control signal flat (not every such curve was filed as active); inconclusive means small, poorly fitted or top-dose-only effect, or effect the other way, or a change in a side signal; inactive means no such curve, though single readings can be large or run the other way; the % refers to the signal ratio. Potencies of inconclusive entries are doubtful fits and often do not repeat. “Side channel” marks fits to a control or component signal instead of the main read-out.

Target: Muscleblind-like protein 1 (Homo sapiens) (UniProt Q9NR56)
UniProt Q9NR56, sequence (Q9NR56 whole entry, looked up): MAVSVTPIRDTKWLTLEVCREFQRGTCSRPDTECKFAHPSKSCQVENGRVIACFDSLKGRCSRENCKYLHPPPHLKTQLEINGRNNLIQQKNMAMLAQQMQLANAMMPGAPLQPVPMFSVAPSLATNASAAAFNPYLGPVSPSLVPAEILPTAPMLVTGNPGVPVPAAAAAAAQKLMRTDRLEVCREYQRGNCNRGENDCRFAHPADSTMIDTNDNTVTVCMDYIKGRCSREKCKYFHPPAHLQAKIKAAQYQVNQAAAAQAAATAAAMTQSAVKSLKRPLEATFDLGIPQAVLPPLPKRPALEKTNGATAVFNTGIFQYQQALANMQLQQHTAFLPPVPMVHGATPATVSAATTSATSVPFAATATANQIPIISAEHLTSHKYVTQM
Test: qHTS Assay for Inhibitors of MBNL1-poly(CUG) RNA binding
Details: TR-FRET MBNL1-His/biotin-(CUG)12 binding, 665/545 ratio; series mostly up to 57.5 µM
Procedure, shortened: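 Ratiometric TR-FRET (665 over 545 nm, excitation 340 nm) tracks disruption of MBNL1-His/biotin-(CUG)12 complex after 60 min at room temperature, with compounds at 92 nM to 58 uM final.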
Potency means the concentration at half of the fitted maximal effect; tags describe the fitted curve by direction and shape or compound fluorescence and quenching.

| Structure (SMILES) | Potency |
| --- | --- |
| CN1CCN(/N=C/c2nc(-c3ccccc3)n3ccccc23)CC1 | inconclusive: 10 µM [quencher, side channel, partial curve] |
| Cc1nn(-c2ccccc2)c(Cl)c1C(=O)N1CCN(c2ncnc3c2cnn3-c2ccccc2)CC1 | inactive |
| O=C(NCCNc1ccc(Cl)cc1[N+](=O)[O-])c1ccccc1F | inconclusive: 10 µM [quencher, partial curve] |
| CC(C)Oc1ccc(C(=O)N/N=C/c2ccc(-c3ccc(S(=O)(=O)Nc4ncccn4)cc3)o2)cc1 | inconclusive: 14.1 µM [quencher, side channel, partial curve] |
| CCc1cc(C(=O)COc2ccc(F)cc2)c(O)cc1O | inactive |
| CN(C)c1ccc(NC(=O)COC(=O)c2cc(Cl)ccc2[N+](=O)[O-])cc1 | inconclusive: 25.1 µM [quencher, side channel, partial curve] |
| Cc1ccc(C)c(N=Cc2cc3c(cc2[N+](=O)[O-])OCO3)c1 | inconclusive: 20 µM [quencher, side channel, partial curve] |
| NC(=O)c1nsc(C(=O)N(c2ccc(F)cc2)C(C(=O)NCC2CCCO2)c2c[nH]c3ccccc23)c1N (stereo not given) | inconclusive: 44.7 µM [quencher, side channel, single point] |
| Cc1nc(NCc2ccco2)c2c(C)c(C)sc2n1 | inactive |
| CC(C)c1nnc(NC(=O)C2CCCN2C(=O)Nc2ccccc2[N+](=O)[O-])s1 (stereo not given) | inconclusive: 15.8 µM [quencher, side channel, partial curve] |
| COc1ccc(CCn2c(=N)c(S(=O)(=O)c3ccc(Cl)cc3)cc3c(=O)n4ccccc4nc32)cc1 | inactive |
| CCCCC(=O)NC(=S)Nc1cccc(NC(=O)c2ccco2)c1 | inconclusive: 0.282 µM [fluorescent, side channel, partial curve] |
| CN(C)c1ccc(CN(C(=O)c2ccc(Cl)c([N+](=O)[O-])c2)C2CCS(=O)(=O)C2)cc1 (stereo not given) | inconclusive: 44.7 µM [quencher, side channel, partial curve, poor fit] |
| Cc1ccc(OCc2ccccc2Br)c([N+](=O)[O-])n1 | inconclusive: 20 µM [quencher, side channel, partial curve] |
| COc1ccccc1C(=O)Nc1ccnn1C1CCN(Cc2ccc3nonc3c2)CC1 | inconclusive: 17.8 µM [quencher, partial curve] |
| O=[N+]([O-])c1ccc2nc(-c3ccccn3)[nH]c2c1 | inconclusive: 14.1 µM [quencher, side channel, partial curve] |
| CCC(CC)C(=O)OCC(=O)Nc1cccc([N+](=O)[O-])c1 | inconclusive: 25.1 µM [quencher, side channel, partial curve] |
| O=C1C(Cl)=C(NCc2cccnc2)C(=O)c2ccccc21 | inconclusive: 8.91 µM [quencher, side channel, partial curve] |
| CSc1ccc(/C=N/Nc2nc(C)cc(C)n2)cc1 | inconclusive: 31.6 µM [quencher, side channel, single point] |
| COc1ccc(CC(=O)NCC(=O)N=Nc2c(O)[nH]c3ccccc23)cc1 | inconclusive: 3.55 µM [quencher, side channel, partial curve] |

| Structure (SMILES) | Potency |
| --- | --- |
| O=C(O)CCc1ccc(-c2cccs2)n1-c1ccc(C(=O)O)cc1 | inconclusive: 7.08 µM [fluorescent, side channel, single point] |
| CCN(c1ccccc1)S(=O)(=O)c1ccc(NC(=S)NC(=O)c2ccc(Br)o2)cc1 | inactive |
| O=C1c2ccccc2C(=O)N1CCc1nc(-c2ccncc2)no1 | inconclusive: 20 µM [quencher, side channel, partial curve] |
| S=C(Nc1ccccc1)N1CCC(Cc2ccccc2)CC1 | inactive |
| CCCNc1nc2nc3ccccn3c(=O)c2cc1C(=O)NCCN1CCOCC1 | inconclusive: 11.2 µM [quencher, side channel, partial curve] |
| O=Cc1ccc(C(=O)OCC(=O)N2CCCC2)cc1 | inactive |
| COC(=O)C1=C(C)N(C2CCCCC2)C(=O)/C1=C\c1cccs1 | inactive |
| O=C(O)c1ccc2c(c1)C(=O)N(CCc1c[nH]c3ccccc13)C2=O | inconclusive: 17.8 µM [quencher, side channel, partial curve] |
| O=C(Nc1cccc(-c2nn[nH]n2)c1)c1ccc(Br)s1 | inactive |
| O=c1cc2ncc(-c3[nH]ncc3[N+](=O)[O-])cn2[nH]1 | inconclusive: 12.6 µM [quencher, side channel, partial curve, poor fit] |
| Cc1ccc(C(=O)C[n+]2ccc(-c3nnc4n3CCC4)cc2)cc1 | inconclusive: 14.1 µM [quencher, side channel, partial curve] |
| O=C(NCC(O)c1ccc([N+](=O)[O-])cc1)c1cccc(S(=O)(=O)N2CCCC2)c1 (stereo not given) | inconclusive: 14.1 µM [quencher, partial curve] |
| COc1ccc(C)cc1NC(=O)CSc1nnc(-c2cc(C)[nH]n2)n1N | inconclusive: 31.6 µM [fluorescent, side channel, single point] |
| O=C(/C=C/c1ccc(Cl)cc1Cl)Nc1ccncc1 | inconclusive: 20 µM [quencher, side channel, single point] |
| CCCC1Cc2c(sc(NC(=S)NC(=O)c3ccccc3)c2C#N)CO1 (stereo not given) | inconclusive: 0.0708 µM [fluorescent, side channel, partial curve] |
| O=C(Nc1cc(SCCO)cc([N+](=O)[O-])c1)c1ccc(Br)o1 | inconclusive: 7.08 µM [quencher, side channel, partial curve] |
| COC(=O)c1cc(C(=O)Nc2nc3ccccc3[nH]2)cc([N+](=O)[O-])c1 | inconclusive: 4.47 µM [quencher, side channel, full curve] |
| CC(=O)Nc1sc2c(c1C#N)CCCCC2 | inconclusive: 44.7 µM [fluorescent, side channel, partial curve] |
| CC1CCN(c2ccc(C(=O)N3CCOCC3)cc2[N+](=O)[O-])CC1 | inconclusive: 20 µM [quencher, side channel, partial curve] |
| O=C(NCc1ccc2c(c1)OCO2)c1cc2ncc(Br)cn2n1 | inconclusive: 63.1 µM [inhibitor, partial curve] |

| Structure (SMILES) | Potency |
| --- | --- |
| Cc1ccc(-c2nnc(Cc3ccc([N+](=O)[O-])cc3)o2)cc1 | inconclusive: 17.8 µM [quencher, partial curve] |
| Cc1ccccc1Nc1c([N+](=O)[O-])ccc2nonc12 | inconclusive: 4.47 µM [quencher, side channel, partial curve] |
| CCN(CC)Cc1c(C(=O)N/N=C/c2ccc(C)o2)nnn1-c1nonc1N | inconclusive: 15.8 µM [quencher, side channel, partial curve] |
| COCCCn1c(=NC(=O)c2ccncc2)c(C#N)cc2c(=O)n3cccc(C)c3nc21 | inconclusive: 3.16 µM [quencher, side channel, full curve] |
| CCCCOc1ncnc2c1[nH]c1ccc(F)cc12 | inactive |
| CC(=O)Nc1ccc(NC(=S)NC(=O)c2ccc([N+](=O)[O-])cc2)cc1 | inconclusive: 1.12 µM [quencher, side channel, full curve] |
| CC(=O)Nc1ccc2c(CSc3nncs3)cc(=O)oc2c1 | inconclusive: 17.8 µM [quencher, side channel, partial curve] |
| O=C(Nc1cc([N+](=O)[O-])ccc1F)C1CC1 | inconclusive: 28.2 µM [quencher, side channel, partial curve] |
| Cc1nn(-c2ccccc2)c(N)c1Sc1ccc([N+](=O)[O-])cc1 | inconclusive: 14.1 µM [quencher, partial curve] |
| O=C(NC12CC3CC(CC(C3)C1)C2)c1cccc([N+](=O)[O-])c1 | inconclusive: 11.2 µM [quencher, side channel, partial curve] |
| COc1ccc(CCN2Cc3c(cccc3[N+](=O)[O-])C2=O)cc1OC | inconclusive: 14.1 µM [quencher, side channel, partial curve] |
| CCOCCn1c(=NC(=O)c2cc3ccccc3oc2=O)sc2cc(S(N)(=O)=O)ccc21 | inconclusive: 3.55 µM [quencher, side channel, partial curve] |
| FC(F)(F)c1ccc(N2CCN(Cc3ccc4c(c3)OCO4)CC2)nc1 | inactive |
| CCCn1c(/C=C/c2ccccc2)nc2ccccc21 | inconclusive: 35.5 µM [quencher, side channel, single point] |
| Cc1cc(NC(=O)Cn2c(=O)c3c(ncn3CC(C)C)n(Cc3ccccc3)c2=O)no1 | inactive |
| COc1ccc(Cn2c(=O)[nH]c3cc(C(=O)N4CCN(Cc5ccccc5)CC4)ccc3c2=O)cc1 | inactive |
| CS(=O)(=O)N1CCN(C(=O)Cc2cccs2)CC1 | inconclusive: 4.47 µM [quencher, side channel, single point] |
| Cc1c([N+](=O)[O-])c([N+](=O)[O-])nn1CC(=O)N1CCOCC1 | inconclusive: 7.94 µM [quencher, partial curve] |
| Cc1ccc(S(=O)(=O)CNC(=O)c2ccccc2)cc1 | inactive |
| c1ccc(-c2csc3ncn4nnnc4c23)cc1 | inconclusive: 31.6 µM [quencher, side channel, single point] |
